Read counts are not given, so values of variants with three or more changes are uncertain.
B1: LINE1-mini (parent)
chain: GGCAGAGCUCAACACAGCGUGGCAAAGUGGCUGUGGCUAGACUGCC

Variants of: B1
Experiment: self-cleavage, relative activity (ratio to wild type); higher = more cleavage; in vitro, sequencing; the parent is a self-cleaving ribozyme

Variant | self-cleavage
A6C C10U G40U C46A | 0.03
A12U G30C C37U U38G | 0
G27A C31A G36U | 0.08
C3G A12U A24G C31U | 0.01
G5A C10U G17C G44U | 0.05
A14U C37U U38A | 0.06
U9C G21A C37G | 0.08
G1A A11C C42U | 0.06
G2U A11C C18U C37A | 0.01
G19A C23A A25U U38A | 0.22
C3A U9C A12C C18U U28G C31U | 0.02
U28G G33A G40U | 0.05
A6C G17A U34C G36C U43A | 0.02
G1C C3G C37A | 0.24
G33C G36A G44C | 0.01
C8A A16G G40A C45A | 0.28
A12C C23A C37A | 0.05
C10A A12G G21C | 0.01
A4C G21U C42A | 0.09
G2C A4C G7C A25U C37U | 0.12
C13U A14U U32C | 0.04
C10U A11C G33A G35U A41G | 0.02
C13U G17U U20G | 0.44
A12C C18A A24U C42A | 0.01

Variant | self-cleavage
G36A A39C G40C | 0
G1C C23U G30C U34A G40U | 0.02
C18G A26C C37G | 0.03
G7A A11G A41C | 0.01
C3A A4U A6U G29U | 0.05
C8A C13U A14G U20G U28A C42A | 0.13
G17A C23U G35A | 0.17
A11U G27A G40U | 0.02
C3U A4G C8A G44A C46U | 0.42
C18U U32A U34G | 0
C3A A12U C37A | 0.07
A12U C13A G17C G35A | 0.04
C3U C13G U43A C45G | 0.05
A11G A14C U34G C37U | 0
G5C U9G A24G G36A | 0.03
A14C U32G A41G | 0.04
G36U C37G G40C C45A | 0.06
G2C A11G A16C C31A G33U | 0.01
C10U G19U A39U | 0.21
A12U C18U U34A U43A | 0.05
G22C A24G A25U G35C C46U | 0.01
C10G A11C C13U C18A G36U | 0.02
C10A G29U G44U | 0.07
C10U C23G G36U | 0.06

Variant | self-cleavage
G1C G5U A16C | 0.04
A11U C18U G33C A39U | 0
A16C G17U C37A A39G C45A | 0
G22U A25G C45A C46A | 0.58
U38C U43G G44C | 0.07
C15G C18A G29A G36A | 0.09
U9C G17A G19A C42A U43A | 0.04
A4G G7U C13U | 0.04
G1A C3A C15A A16C G19U C45U | 0.36
U9A C15A C18A | 0.15
A14G A24U A26U G33A | 0.01
G2U A6C G7U A14U G29U | 0.05
G17A U28C A39C | 0.03
G2U A12U G17C | 0.02
G29U G30U C45G | 0.13
A14U U20G C31A | 0.01
G27A U28C A41U | 1.62
G2A C10G A11G | 0.02
G29A G40U U43G | 0.02
C3A A4U G27C U32A | 0.03
U20G G22U C31G G44U C45U | 0.07
G7A U9A U38C | 0.18
C13A G36U C37U G44U | 0.2
A12G A14U G33C G36C | 0.06

Variant | self-cleavage
A12G A24G G29A U32A C45A | 0.01
A4C A6G U32G G36C | 0.03
C10G U38C C42G | 0
C10A G33A G44U | 0.03
G27A G29C C42A | 0.08
U38G A39G C46G | 0.01
C10U C23A C31U G33A | 0
G2U A6C U28A G29C U38A | 0
C13G C18U A26G | 0.07
G36A A39U G44U C46U | 0.07
A6G U9A C13A C42G | 0.01
C15A C23U A25G G29U G36A C46U | 0.02
U9A G22C C31U | 0.02
G21U G33U C45U | 0.13
G5A G35C A41U | 0.08
C8A C15U U34A G40U A41U | 0.02
G1A A12G U20A | 0.05
C3U U32C A39U | 0.18
C8G G22A A24G G29C G40U | 0.01
C3A G7A C15G G19U | 0.15
C3A U20G A26U A41C C45G | 0.03
U9C G27C C37U | 0.02
C10G U20C G22U A26G G27U | 0.04
G5U C8U C10A C18A G27C | 0.02

Variant | self-cleavage
C18G G33A G40C C42A | 0.01
U9G A14U A25G G44C | 0.04
A11G A14U C42A | 0.01
G19U G21U A24G | 0.36
C3U G22U G30A | 0.75
G1U C10A U20G G27A C46A | 0.03
G1U U28C G40C | 0.02
G2U U34C U43G C45A | 0
G22C G36A C46U | 0.09
C31U G35U C37A | 0.03
C13U U20G A26G G27U | 0.02
A6G C10U C23G G30U | 0.02
C10U C23A C45A | 0.14
C15A G22A C31A A39U | 0.02
C10U U20C G29C G35C | 0.01
U9A C10U G35A C37G C45U | 0.1
G5A C10U G19U G33A | 0.06
C13U G27A G35A | 0.52
G2U A16C A26G | 0.11
U20C A25C C45G C46U | 0.02
C8G A12G C37A G40C | 0.01
A6C G30C U34G G36U | 0.04
U28A C31G A41U | 0.14
G27A G36U U38A A41G | 0.01

Variant | self-cleavage
C13U U34C A39U | 0.09
G1U U9C A39C C42U | 0.01
G21A G22C U32A A41U C42U U43C C46A | 0.05
C3G G7U C10A A12G G19U G30U C42A C46U | 0.01
A4C A11U A25C C37G | 0.01
C13A G17C U20C G27A U28A G29U G40A | 0.03
A24C U28G C42A G44U | 0.02
A25U G33A A39U | 0.03
A12G C23U G35A | 0.01
G1U C13U G21U A25U G44A C46U | 0.02
G2C C18G A25U | 0.02
C3G G7A U9G | 0.47
C13A G19C A26C C45A | 0.05
A4C C8U A12G C18A | 1.05
C3G G36A U43A | 0.23
U32C A39U G40C | 0.01
G1U A4C C31U | 0.03
C3A G7A C8A G22A | 1.48
C15A G22C C45A | 0.02
C8A U28G C46U | 0.04
G36U C42U C45U | 0
G7A C13A G17C G22C G44U | 0.09
G1U A24C A25G | 0.35
G2C G22U G33A A39C | 0.03

Variant | self-cleavage
A4U A26U U34G U38G A41G | 0.03
C13G G22A A24C U34A C45G | 0
G1C G2C U28A U32C | 0.02
G7C C31G G35A C37A | 0.12
C8A U9A C10G | 0.05
G5U A12U C23A U28A A39U | 0.04
G27A U32C G40U | 0.12
A16C G19U G22C A24C C46U | 0.08
A4C C13A U34G A41C | 0.04
G2A C13G G30A G33U U34C G35U | 0.19
C10A C18G C42A | 0.04
A12U C15G G30A | 0.04
G1A G33U U38A | 0.05
C3G C10A G21C | 0.04
A12U C23U A39G | 0.02
C8U A11U G30C G35A C46G | 0.01
G2U G27U A41U | 0.09
C3A G7A A25C | 0.07
G1U G2A G17U | 0.05
A6U C18U G27U G36C | 0.07
G2A C13A C18U C23G G36A C42U | 0.17
G2U A6C G27C U28A U38C | 0
G21U U43G C45G | 0.21
